Data from paper PMC5993198 (Biochemistry, 2018).

Molecular target: Recombinant Flag-p53 wt bound to anti-Flag M2 affinity beads (UniProt P04637)
Assay: co-IP

UniProt P04637, sequence (P04637 whole entry): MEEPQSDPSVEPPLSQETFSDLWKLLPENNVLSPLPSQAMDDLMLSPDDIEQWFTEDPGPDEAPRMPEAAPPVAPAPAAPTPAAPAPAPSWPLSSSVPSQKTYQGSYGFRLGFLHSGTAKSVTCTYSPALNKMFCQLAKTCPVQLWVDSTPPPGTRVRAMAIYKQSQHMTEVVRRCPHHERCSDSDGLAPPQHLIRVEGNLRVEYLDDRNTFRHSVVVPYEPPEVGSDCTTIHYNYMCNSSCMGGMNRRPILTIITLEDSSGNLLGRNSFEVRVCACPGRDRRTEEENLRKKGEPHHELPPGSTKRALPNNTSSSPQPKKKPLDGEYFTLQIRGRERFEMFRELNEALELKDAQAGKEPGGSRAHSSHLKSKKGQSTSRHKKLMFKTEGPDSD

binding result: binds
B1: Recombinant GST-RelA-AD ([…]) (domain or fragment)
chain: not shown
